# Some of the results follow.
# Test system: PfHDP1 homeodomain (GST-tagged)
# Assay: gcPBM binding intensity (ln(normalized median fluorescence intensity)); higher = stronger DNA binding
# Summary of the method: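 For binding intensity, the highest Masliner-normalised natural-log median intensity across replicate spots of either probe orientation was taken. Protein bound to the array was stained with Alexa488 anti-GST antibody and scanned at 488 nm. The protein, GST-tagged P. falciparum DNA-binding domains from E. coli at about 25 μg on average, had been applied for 1 h to an Agilent 4 × 180k array of primer-extended double-stranded 36-bp intergenic genomic probes and negative controls.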
row,Sequence,gcPBM binding intensity (ln)
1,TTTTGTTTTTACGAATACTTTTTTAATTTTATTTAT [TGCATGCA_negctrl_site395],6.08
2,ATATATATATATTATACACACAAAAATATTTTGTAT [CACACA_site266],8.71
3,ATCTATGTTCCTTTTACACACATAATCTTTTTTTTA [CACACA_site5468],7.3
4,AAATTTTCTTTTAAGTGTACGAAATTTAGTATTTCA [XGTACX_site7819],6.09
5,TAAACAGTATGCAACGCATGCGTTGTTATATATAAA [TGCATGCA_site232],7.1
6,ATGTATTTATTATTTAGTACACATTATTTTCTTATA [XGTACX_site6365],6.48
7,TTTTTGTTTGTTCACGACTACATTATGTCATAAATG [CACACA_negctrl_site597],6.52
8,TATATATAAATATATACACACATGAAAATAAATAAA [CACACA_site2514],6.71
9,ATTTTTTTTTTTTTTTTTTTATTCTTAATTCATATA [CACACA_negctrl_site342],6.2
10,ATAGTTATTTTATAGCGTACACAATAAATATATAAA [XGTACX_site4445],6.75
11,CACAGAAATAGAGATACACACACACCGATATTTATG [CACACA_site9313],6.75
12,GTCATATATTATAATAGTACATAAATAATTGATGCC [XGTACX_site3567],6.67
13,TTTTTCTATATTTTCTTTTATAAAATATATAATTTT [GTGCAC_negctrl_site345],6.11
14,ATATGATAAATTATATGTACTTAAAATATATTATAA [XGTACX_site5904],6.21
15,TGGCAAAATAGGCACACACACATATACATCTATATT [CACACA_site6626],6.86
16,TTTTTTTTTAGAAAAACATGCATGTCCTAAAAATAA [TGCATGCA_site684],6.45
17,AAAAAAAAAAAAAAAAAAAAAAAAACAATGAATTTA [GTGCAC_negctrl_site698],7.07
18,AGTAGATATAATTATAGTACTTTGATGTTTTCTTTA [XGTACX_site5038],6.28
19,ATACATATATTTTTATGTACATATATTTTTTTTGTA [XGTACX_site4546],6.42
20,TAAAGTACAGGAGTAAATTGAAAAAAAAAAAAAAAA [CACACA_negctrl_site1410],6.22
21,ATAAATAAATAAATACGTACATATATATATATATAT [XGTACX_site8838],9.5
22,TATAATATTCCTTTTTAACACACATATGAACAAATA [CACACA_site7932],6.77

row,Sequence,gcPBM binding intensity (ln)
1,GTTATACACATATATACACACATATGTAGATATATA [CACACA_site7529],7.47
2,TTGATATCTTTTTTTTGTACATATATTTATAAGTAA [XGTACX_site3538],6.71
3,TTTTTTTAAATTATATGTACATAATTTTAATTTTAT [XGTACX_site5086],6.43
4,TTTTAGAGTGATATATATTAACTTTTAATAAAAAAA [CACACA_negctrl_site611],5.99
5,AAAATATAAGCCACTACACACATATATAAATGTATA [CACACA_site2639],6.38
6,AGGTCCTACACCAATAAATATCATATATATATTATA [CACACA_negctrl_site568],6.35
7,TTATAACAAAAAATTAAAGAAAGAGAATAAGTGAAA [CACACA_negctrl_site975],6.77
8,TTAACTATAATAAAATGTACATATGTAACATATATA [XGTACX_site7790],6.45
9,TTGTACATCTTTTGCACACGTAATGTTATTAAAATA [CACACA_site4827],10.7
10,TGTATATTTGTTGTTACACACATATATTTTTTTTTT [CACACA_site128],6.6
11,TTACCTATTCTAAAATGTACACATTATATATGTGCT [XGTACX_site5776],6.56
12,ACATGTTTCATATGTTGTACTAACTTAAATATAAAT [XGTACX_site6412],6.37
13,ATGATTTTTTTTATTTTTTAGCTAGAGCTAGCTTAT [CACACA_negctrl_site433],6.3
14,TATGGAAGAAAATATACACACAAAAAAAAAAAATGG [CACACA_site4924],6.94
15,AACACTCAAAAAAATTTAAATAAAAAAAAAAAAAAA [CACACA_negctrl_site680],6.32
16,TATGAATGCTTTTATGCACACGTACAAAAATATTAT [CACACA_site8851],9.99
17,ATATGTTAAAAATTCACACAAAAAAGTATACAGATA [CACACA_site4179],6.8
18,AAAAAATTAAATAATTACAAAAAAATAAAATAAAAA [GTGCAC_negctrl_site638],6.44
19,CCAACATATATTATCACACACATATATATATATATA [CACACA_site2016],9.3
20,ATATTAGATTAATTTACACACAGAAAATGAGATTTT [CACACA_site541],6.23
21,AATAAACAAATATGTACACACATATACCTATAAATA [CACACA_site7358],6.43
22,TAGAGTATATATAAATGTACATATTTTATGCTAATT [XGTACX_site7821],6.64

row,Sequence,gcPBM binding intensity (ln)
1,ATGTTTACATATTAGGGTACATAATAAATTGCATAT [XGTACX_site6712],7.18
2,TTTTAAACAAGACACACACACATATATATATATATA [CACACA_site925],9.39
3,TTATTGTAAATATATGCATGTGCAAAATGAAAAAAA [TGCATGCA_site399],10.5
4,GAATGTATAAAATGAACACACGCCAAATTAAATGAA [CACACA_site3044],6.39
5,CATGTATTTTATATTACACACTAATATTATATATAT [CACACA_site1508],6.76
6,AAAAATAATGCACATATATATAATATGTATATGTAT [CACACA_negctrl_site443],11.1
7,ATAATTATAAAATAAACACACATATATATTTATATG [CACACA_site440],6.29
8,ATTATGTTATATATATGTACATATATAATGTTCATA [XGTACX_site6184],6.48
9,AATAAATAAACAAATTAACACACAGAATTTTTTTTT [CACACA_site8485],6.35
10,ATAAAATAAAAAAGTAGTACACACTTCACGATATTT [XGTACX_site8289],6.39
11,AAACAATACATATATTGTACATATATTATATTATAT [XGTACX_site8136],6.4
12,AAAAAATCAAAACACACACACACACCCAAAAAAAAA [CACACA_site1444],6.72
13,CGGATCTATAAGTGTACACAATCTAGCGAAAAGTTT [CACACA_site4932],6.41
14,AATTTGAAATAAAGTAGTACAGTATATAAAAATATA [XGTACX_site128],6.42
15,TTAGAAATTCATTTTACACACAATTCAAAAGAATGT [CACACA_site2104],6.08
16,ATAATGATTATAATATGTACATAAATATATATATTA [XGTACX_site5029],6.64
17,TATATATCTATATTTACACACAGTTACTATGTAGAT [CACACA_site7532],6.27
18,ATAATATGTATAATCACACATTTTTCTTTTAAGACA [CACACA_site5297],6.07
19,GTTAAACTTAATATCGGTACACACACAAGATAAGAA [XGTACX_site1660],6.97
20,ACCATATAAATAAACACACACACACCCATATATATA [CACACA_site2321],6.98
21,AAATATATTATATTTAGTACGCATATATAATATGCA [XGTACX_site4835],6.07
22,ATGAAAATTTATATTGCACACATAGGGAATAAAAAA [CACACA_site8667],10.4

row,Sequence,gcPBM binding intensity (ln)
1,AGTTAATTAATAGGCACACATATATATGTATAAATA [CACACA_site523],6.97
2,TAAAATATCATAGATAGTACATATAACGTTTTATAT [XGTACX_site5666],6.16
3,ATCGAAATTTTAGAATATATATGATGTTACTTAAGT [GTGCAC_negctrl_site611],6.29
4,CATGACATAAAAAATATACACACTATAATATATATA [CACACA_site1402],6.85
5,GTGGCTACTATATATTGTACGATATTATATATATAC [XGTACX_site8376],6.79
6,AGAATAAGAATTATTAGTACTTATAAATATTATATT [XGTACX_site7228],6.04
7,GTAAATACACATATGTGTACATATATATATATATAT [XGTACX_site3696],9.3
8,CTATTACATTAAATGTGTACATATATATATATATAT [XGTACX_site5233],9.41
9,TAATTTAAAATATATAGTACACACGTGAACACAAAT [XGTACX_site792],6.99
10,GGTTCATTAAAGTGTACACATAAATACCGTAACATT [CACACA_site6002],7
11,CTAAGGTATGATTAATCACACACATAAATATATATA [CACACA_site8847],6.82
12,GGAATAAAGACAGCACGTACATATCTTACGAAGCTC [XGTACX_site3918],6.13
13,CACAAGAAAATTCACACACACACATATATATATATA [CACACA_site3880],9.21
14,TCCTTAATTCAAAAAATAATATCTTATATTTCAAAT [CACACA_negctrl_site1592],5.9
15,TCATCATGTATGTACACACATACATATATTATGTAC [CACACA_site1386],6.37
16,TATAAGTAGATAAGGGTGCACAATATAAATATATAG,9.19
17,CTTTTTGAAATATTAACACACATTTTGTTAATGAAT [CACACA_site6087],6.28
18,ATATTAATTTCTCATGCATGTTCTTCCCAATTGTAA [TGCATGCA_site425],7.02
19,GGTTAGACGAAATATACATGCAATGGAAAATAAGTT [TGCATGCA_site23],7.07
20,ATTTTTATTAGTTATTGTACTTATTATTTATTAATT [XGTACX_site2568],6.52
21,TATAGATATATACGGTGTACATACATAAAAAAAAAA [XGTACX_site1648],6.44
22,TATAAAGAAATCATTACACACAAATAAATACATACA [CACACA_site2675],6.89

# From the supplement of paper PMC11417369
